The whole screen tested about 310,000 compounds, of which about 14,000 (4.5%) showed an effect of 50% or more. Effects have a minus sign here. This is one part of the list.
Each compound was assayed against human ether-à-go-go-related gene (hERG) potassium channel (human, UniProt Q12809) (assay: primary screen, population patch clamp on CHO cells stably expressing hERG).
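Also: peak tail current of the secondary pulse compared with the same well before compound.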

Sequence of human ether-à-go-go-related gene (hERG) potassium channel (Q12809 whole entry, looked up): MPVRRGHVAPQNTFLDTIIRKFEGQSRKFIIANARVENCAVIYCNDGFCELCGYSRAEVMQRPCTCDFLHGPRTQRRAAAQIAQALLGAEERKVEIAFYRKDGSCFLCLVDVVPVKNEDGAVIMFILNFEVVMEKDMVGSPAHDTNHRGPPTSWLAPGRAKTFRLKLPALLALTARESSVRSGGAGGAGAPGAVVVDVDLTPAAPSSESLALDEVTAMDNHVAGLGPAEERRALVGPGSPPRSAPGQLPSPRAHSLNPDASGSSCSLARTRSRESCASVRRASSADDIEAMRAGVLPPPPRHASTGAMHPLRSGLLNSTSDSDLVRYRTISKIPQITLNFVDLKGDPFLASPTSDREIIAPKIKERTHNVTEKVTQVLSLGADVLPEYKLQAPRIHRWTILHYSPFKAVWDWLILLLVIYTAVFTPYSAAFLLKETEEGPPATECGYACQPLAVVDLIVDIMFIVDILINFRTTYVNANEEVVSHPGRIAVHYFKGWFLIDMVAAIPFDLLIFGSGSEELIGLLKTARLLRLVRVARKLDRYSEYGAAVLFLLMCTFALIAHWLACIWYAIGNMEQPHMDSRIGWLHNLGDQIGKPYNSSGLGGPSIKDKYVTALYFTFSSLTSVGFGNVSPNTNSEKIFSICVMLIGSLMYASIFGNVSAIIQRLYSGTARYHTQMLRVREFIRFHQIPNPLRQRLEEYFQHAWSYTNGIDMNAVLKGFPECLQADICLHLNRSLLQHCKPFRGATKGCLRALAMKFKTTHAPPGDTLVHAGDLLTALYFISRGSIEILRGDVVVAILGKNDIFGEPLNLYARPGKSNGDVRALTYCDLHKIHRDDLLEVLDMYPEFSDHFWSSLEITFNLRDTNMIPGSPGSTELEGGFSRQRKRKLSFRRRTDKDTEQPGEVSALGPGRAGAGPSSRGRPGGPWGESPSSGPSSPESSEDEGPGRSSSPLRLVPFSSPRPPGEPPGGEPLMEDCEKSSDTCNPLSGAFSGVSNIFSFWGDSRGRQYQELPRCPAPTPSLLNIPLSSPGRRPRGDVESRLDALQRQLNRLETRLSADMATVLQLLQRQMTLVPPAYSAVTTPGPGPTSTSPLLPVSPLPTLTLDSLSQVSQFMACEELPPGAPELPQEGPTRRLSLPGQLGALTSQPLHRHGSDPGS

Going from `Cc1ccc(N2C(=O)C3C4CC(=O)C(c5ccccc54)C3C2=O)cc1C` (stereo not drawn) to `O=C1C2CCCN2C(c2ccccc2)N1c1cccc(Cl)c1` (stereo not drawn), the “hERG current change (%, negative = inhibition) at 10uM” value rises from -12.3% to -7.9%.

Compared with `CCn1ncc(/C=N\NC(=O)c2cc(-c3ccc(C)cc3C)nc3ccccc23)c1C`, `CCn1nc(C(=O)Nc2nc(-c3ccccn3)cs2)c2ccccc2c1=O` is higher in “hERG current change (%, negative = inhibition) at 10uM” value: -8.84% for the first, -2.53% for the second.

Compared with `COc1cc(NC(=O)Cc2ccc(OC)c(S(=O)(=O)N3CCOCC3)c2)c(OC)cc1Cl`, `COc1ccc(CNC(=O)CSc2nnc3c(Cl)cc(C(F)(F)F)cn23)cc1OC` is higher in “hERG current change (%, negative = inhibition) at 10uM” value: -25.1% for the first, -5.83% for the second.

First: CCCCONc1ncnc2nonc12
Second: CCCn1nnc(NC(=O)C(C)Oc2ccc(Cl)cc2Cl)n1 (stereo not drawn)
The “hERG current change (%, negative = inhibition) at 10uM” value of the first is higher: 2.78% for the first, -13.5% for the second.

Going from `CCN(CC)C(=O)Cc1cn(C)c2ccccc12` to `CN(C(=O)Cn1cnc2ccccc2c1=O)C1CCS(=O)(=O)C1` (stereo not drawn), the “hERG current change (%, negative = inhibition) at 10uM” value falls from 16.8% to 3.29%.

Going from `Cc1nn(-c2ccccc2)c(C)c1S(=O)(=O)O` to `Cc1cccc(NC(=O)CCOc2ccccc2)c1C`, the “hERG current change (%, negative = inhibition) at 10uM” value falls from 1.05% to -10.5%.

Compared with `COc1ccc(/C=C/C(=O)CCC(=O)O)cc1`, `CCN(CC(=O)NCc1cccs1)C(=O)/C=C/c1ccc(OC)cc1OC` is lower in “hERG current change (%, negative = inhibition) at 10uM” value: 17.5% for the first, -26.4% for the second.

Compared with `Cc1cccc(C2N=C(N)Nc3nc4ccccc4n32)c1` (stereo not drawn), `Cc1nc(N)c2c(Cc3cccc4ccccc34)nn(C(C)(C)C)c2n1` is higher in “hERG current change (%, negative = inhibition) at 10uM” value: 4.65% for the first, 8.82% for the second.

Going from `COc1ccc(C(=O)NC2CCCCCC2)cc1OC1CCN(C(C)=O)CC1` to `COC(=O)c1ccc(C(=O)OC)c(NC(=S)N2CCC(N3CCCCC3)CC2)c1`, the “hERG current change (%, negative = inhibition) at 10uM” value falls from -4.48% to -15%.

Going from `CCOc1ccc(NC(=O)NCCCCc2ccccc2)cc1` to `CCc1ccc(OCC(=O)NNC(=O)CSc2nnc(-c3ccc(C)cc3)n2C)cc1`, the “hERG current change (%, negative = inhibition) at 10uM” value falls from 18.4% to -5.02%.

Compared with `COc1cc(OC)cc(C(=O)NC(C(=O)Nc2ccc3c(c2)OCCO3)C(C)C)c1` (stereo not drawn), `Cc1ccc(C(=O)Nc2ccc3c(c2)OCCO3)c(C)c1` is higher in “hERG current change (%, negative = inhibition) at 10uM” value: -11% for the first, 8.27% for the second.

First: O=C(CSc1nnc(-c2ccco2)o1)NC1CCCCCC1
Second: O=C(CN(C(=O)CNC(=O)c1ccco1)c1ccc(F)c(Cl)c1)NC1CCCCC1
The “hERG current change (%, negative = inhibition) at 10uM” value of the first is lower: -22.7% for the first, 3.86% for the second.

Going from `COCc1cc(=O)[nH]c(/N=C(\N)Nc2cccc(Cl)c2)n1` to `COCCn1c(SCC(=O)Nc2ccc(Cl)cn2)nnc1-c1ccncc1`, the “hERG current change (%, negative = inhibition) at 10uM” value falls from 21% to -54.2%.

First: CC(C)Sc1nc(SCC(=O)O)c2c3c(sc2n1)COC(C)(C)C3
Second: COC(=O)c1sc2nc(C)cc(C)c2c1N
The “hERG current change (%, negative = inhibition) at 10uM” value of the first is lower: -6.1% for the first, 20% for the second.

Compared with `COc1ccc([N+](=O)[O-])cc1N(CC(=O)NCC1CCCO1)S(C)(=O)=O` (stereo not drawn), `CCCn1c(N)c(N(CCOC)C(=O)c2ccc([N+](=O)[O-])cc2Cl)c(=O)[nH]c1=O` is higher in “hERG current change (%, negative = inhibition) at 10uM” value: 11.4% for the first, 24.9% for the second.

First: CCCCN1C(=O)C(NC(=O)C2CC2)(C(F)(F)F)C2=C1CC(C)(C)CC2=O (stereo not drawn)
Second: O=C(CSc1nnc(C2CC2)n1-c1ccccc1)NCCN1C(=O)CSC1=O
The “hERG current change (%, negative = inhibition) at 10uM” value of the first is higher: 10.9% for the first, 10% for the second.

First: C/C(=N\NC(=O)c1ccccc1Br)c1ccc(N2CCOCC2)cc1
Second: COc1ccc(N2CCN(C(=O)[C@H](C)NC(=O)c3ccccc3Cl)CC2)cc1
The “hERG current change (%, negative = inhibition) at 10uM” value of the first is lower: 7.65% for the first, 10.8% for the second.

First: Clc1ccc(-n2nnnc2CN2CCOCC2)cc1Cl
Second: Cc1cccc(-c2nc(CSCC(=O)NCCCN3CCOCC3)c(C)o2)c1
The “hERG current change (%, negative = inhibition) at 10uM” value of the first is higher: 7.26% for the first, -11.3% for the second.

Going from `CCOC(=O)N1CCC(Nc2c(NCCN3CCN(Cc4ccccc4)CC3)c(=O)c2=O)CC1` to `Cc1cccn2c(=O)c3cc(C(=O)NCCN4CCOCC4)c(=N)n(CCc4ccccc4)c3nc12`, the “hERG current change (%, negative = inhibition) at 10uM” value falls from -1.53% to -75%.

First: CN(C)c1ccc(N=Cc2c(O)n(CCC3=CCCCC3)c(=O)[nH]c2=O)cc1
Second: CCN(CC)c1ccc(N=Cc2c(O)n(-c3cc(OC)ccc3OC)c(=O)[nH]c2=O)cc1
The “hERG current change (%, negative = inhibition) at 10uM” value of the first is lower: 0.675% for the first, 12.3% for the second.

Going from `CCN(CC(=O)NC1CCS(=O)(=O)C1)C(=O)c1ccc(S(=O)(=O)N(CC)CC)cc1` (stereo not drawn) to `CCc1nnc(NC(=O)c2ccc(S(C)(=O)=O)cc2)s1`, the “hERG current change (%, negative = inhibition) at 10uM” value falls from 4.99% to -12.6%.

First: O=C(N/N=C/c1ccncc1)c1ccc(NC(=O)c2cccc(Cl)c2)cc1
Second: Cc1cccc(C)c1NC(=O)c1ccc(CN2CCc3ccccc3C2)cc1
The “hERG current change (%, negative = inhibition) at 10uM” value of the first is higher: 22.7% for the first, 4.57% for the second.

Compared with `COc1ccc(N2CC(C(=O)NCc3cccnc3)CC2=O)cc1` (stereo not drawn), `COc1ccc2[nH]c(=O)c(CN(C(=O)c3cccnc3)c3ccc(C)c(C)c3)cc2c1` is higher in “hERG current change (%, negative = inhibition) at 10uM” value: 1.33% for the first, 14.3% for the second.

Going from `CCn1ncc([N+](=O)[O-])c1C(=O)N1CCc2ccccc2C1` to `O=C(CSc1nnc2ccccn12)N1CCc2ccccc21`, the “hERG current change (%, negative = inhibition) at 10uM” value rises from 5.81% to 9.5%.

First: Cc1cc(C)c(C)c(S(=O)(=O)NC(C(=O)O)C(C)C)c1C (stereo not drawn)
Second: CCc1ccc(C(=O)Nc2ccc(S(=O)(=O)Nc3nc(C)cc(C)n3)cc2)o1
The “hERG current change (%, negative = inhibition) at 10uM” value of the first is higher: 34.3% for the first, 0.401% for the second.

First: O=C1N(Cc2cccc(Cl)c2)C[C@@H]2C[C@@H](c3cccc4cccnc34)N3CCC[C@@]123
Second: O=C(c1ccc(Cn2cc(Br)cn2)cc1)N1CCN(c2ccccc2)CC1
The “hERG current change (%, negative = inhibition) at 10uM” value of the first is lower: -78% for the first, -57.4% for the second.

Going from `Cc1c(Cc2ccccc2)c(=O)oc2c(C)c(OCC(=O)NCC3CCC(C(=O)O)CC3)ccc12` (stereo not drawn) to `O=C(O)C1CCC(CNS(=O)(=O)c2ccccc2)CC1` (stereo not drawn), the “hERG current change (%, negative = inhibition) at 10uM” value rises from 15.7% to 19%.

Going from `Cn1nnnc1SCC(=O)Nc1ccccc1C(N)=O` to `O=C(COC(=O)c1cccs1)Nc1nnc(-c2ccccc2)o1`, the “hERG current change (%, negative = inhibition) at 10uM” value falls from 37% to 1.12%.

First: CCOC(=O)CCSc1nc(-c2ccc3c(c2)OCO3)cc(C(F)(F)F)c1C#N
Second: Cc1cc(C)cc(N=c2c([N+](=O)[O-])nn(-c3ccc4c(c3)OCCO4)n2O)c1
The “hERG current change (%, negative = inhibition) at 10uM” value of the first is higher: 13.2% for the first, 1% for the second.

Going from `Cn1c(=O)cc(SCC(=O)NCC2COc3ccccc3O2)c2ccccc21` (stereo not drawn) to `COc1ccc(Br)cc1CNC(=O)CCN1C(=O)COc2ccccc21`, the “hERG current change (%, negative = inhibition) at 10uM” value rises from -14.2% to -9.62%.

First: CCn1c(SCC(=O)N2CCCC2)nnc1-c1ccc(N)cc1
Second: Cc1ccc(C2(O)CN3CCC2CC3)cc1.Cl (stereo not drawn)
The “hERG current change (%, negative = inhibition) at 10uM” value of the first is higher: 8.63% for the first, 4% for the second.

Going from `c1ccc(Nc2nc(-c3ccccc3)ns2)cc1` to `O=C(Nc1cccc(-c2nc3ccccc3s2)c1)c1cc(=O)c2ccccc2o1`, the “hERG current change (%, negative = inhibition) at 10uM” value falls from 22.8% to 7.92%.

First: COc1cccc(NC(=O)CN2C(=O)CSc3ccc(S(=O)(=O)N4CCCCC4)cc32)c1
Second: CC1CCC(NC(=O)Cn2c(=O)oc3cc(S(=O)(=O)N4CCCC4)ccc32)CC1 (stereo not drawn)
The “hERG current change (%, negative = inhibition) at 10uM” value of the first is lower: 0.476% for the first, 12.6% for the second.

First: O=c1cc(CSc2nnc3ccccn23)c2c(ccc3ccccc32)o1
Second: COc1ccc(C(=O)NN(C)c2nc(C(F)(F)F)nc3ccccc23)cc1
The “hERG current change (%, negative = inhibition) at 10uM” value of the first is lower: -23.5% for the first, -20.5% for the second.

Going from `CC(C)(C)NC(=O)C(=O)NNC(=O)c1ccccc1` to `COc1ccccc1C(=O)NC(=S)NNC(=O)c1sc2ccccc2c1Cl`, the “hERG current change (%, negative = inhibition) at 10uM” value rises from 5.58% to 24%.

Going from `COc1cccc(C(=O)/C=C/Nc2ccc(S(=O)(=O)Nc3onc(C)c3C)cc2)c1` to `COc1ccc(CN2CCN(C(=O)c3ccc(CNS(=O)(=O)c4ccc(C)cc4)cc3)CC2)c(OC)c1OC`, the “hERG current change (%, negative = inhibition) at 10uM” value falls from 25.8% to -28.7%.

Going from `CCN(CC)CCN(Cc1cc2cc3c(cc2[nH]c1=O)OCO3)C(=S)NC` to `CC(C)CN(C(=O)COC(=O)C1=COCCO1)c1c(N)n(Cc2ccccc2)c(=O)[nH]c1=O`, the “hERG current change (%, negative = inhibition) at 10uM” value rises from -13.9% to 10.8%.

Compared with `CC(=O)[C@@H]1[C@@H](C(=O)c2ccc(F)cc2)[C@]2(C(=O)Nc3ccccc32)[C@H]2C=Cc3cc(F)ccc3N12`, `CC(=O)O[C@H]1c2ccccc2-c2ccccc2[C@@H]1OC(C)=O` is higher in “hERG current change (%, negative = inhibition) at 10uM” value: 1.68% for the first, 4.19% for the second.

Going from `Cc1ccc(Cl)c(NC(=O)COC(=O)C2CCC2)c1Cl` to `Cc1cc(Cl)c(S(N)(=O)=O)cc1OCC(=O)NC1CCCCC1`, the “hERG current change (%, negative = inhibition) at 10uM” value falls from 14.7% to 9.3%.

First: CCOC(=O)NC(Nc1nnc(C)s1)(C(=O)OCC)C(F)(F)F (stereo not drawn)
Second: CCC(C)N(C(=O)c1csnn1)C(C(=O)NC1CCCC1)c1c(F)cccc1Cl (stereo not drawn)
The “hERG current change (%, negative = inhibition) at 10uM” value of the first is lower: 9.05% for the first, 11.6% for the second.

First: COC(=O)C1CCCN1C(=O)C12CC3CC(CC(C3)C1)C2 (stereo not drawn)
Second: COc1ccc(C(O)(CCN2CCCCC2)C2CCCCC2)cc1.Cl (stereo not drawn)
The “hERG current change (%, negative = inhibition) at 10uM” value of the first is higher: 10.1% for the first, -27.4% for the second.

Compared with `CS(=O)(=O)NNC(=O)CN1C(=O)C2C3C=CC(C3)C2C1=O` (stereo not drawn), `CCCn1c(N)c(C(=O)COC(=O)CCS(=O)(=O)c2ccc(C)cc2)c(=O)[nH]c1=O` is lower in “hERG current change (%, negative = inhibition) at 10uM” value: 25.2% for the first, 15.8% for the second.

First: COc1ccccc1Nc1ncccc1[N+](=O)[O-]
Second: O=C(CCNc1cccc(F)c1)c1cccc([N+](=O)[O-])c1
The “hERG current change (%, negative = inhibition) at 10uM” value of the first is higher: 23.1% for the first, -0.918% for the second.

`O=C(Nc1c2c(nn1-c1ccc([N+](=O)[O-])cc1)CS(=O)(=O)C2)c1ccco1` was tested, and the “hERG current change (%, negative = inhibition) at 10uM” value was -64.7%.

Source: publication PMC4336329 (PLoS ONE, 2015)
